Experimental data as given in PMC4336329 (PLoS ONE, 2015).
About 14,000 (4.5%) of roughly 310,000 compounds showed an effect of 50% or more. Effects have a minus sign here. Some of the results follow.

target: human ether-à-go-go-related gene (hERG) potassium channel (human, UniProt Q12809); assay: primary screen, population patch clamp on CHO cells stably expressing hERG
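Note: peak tail current of the secondary pulse compared with the same well before compound.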

Chain of human ether-à-go-go-related gene (hERG) potassium channel (Q12809 whole entry, looked up): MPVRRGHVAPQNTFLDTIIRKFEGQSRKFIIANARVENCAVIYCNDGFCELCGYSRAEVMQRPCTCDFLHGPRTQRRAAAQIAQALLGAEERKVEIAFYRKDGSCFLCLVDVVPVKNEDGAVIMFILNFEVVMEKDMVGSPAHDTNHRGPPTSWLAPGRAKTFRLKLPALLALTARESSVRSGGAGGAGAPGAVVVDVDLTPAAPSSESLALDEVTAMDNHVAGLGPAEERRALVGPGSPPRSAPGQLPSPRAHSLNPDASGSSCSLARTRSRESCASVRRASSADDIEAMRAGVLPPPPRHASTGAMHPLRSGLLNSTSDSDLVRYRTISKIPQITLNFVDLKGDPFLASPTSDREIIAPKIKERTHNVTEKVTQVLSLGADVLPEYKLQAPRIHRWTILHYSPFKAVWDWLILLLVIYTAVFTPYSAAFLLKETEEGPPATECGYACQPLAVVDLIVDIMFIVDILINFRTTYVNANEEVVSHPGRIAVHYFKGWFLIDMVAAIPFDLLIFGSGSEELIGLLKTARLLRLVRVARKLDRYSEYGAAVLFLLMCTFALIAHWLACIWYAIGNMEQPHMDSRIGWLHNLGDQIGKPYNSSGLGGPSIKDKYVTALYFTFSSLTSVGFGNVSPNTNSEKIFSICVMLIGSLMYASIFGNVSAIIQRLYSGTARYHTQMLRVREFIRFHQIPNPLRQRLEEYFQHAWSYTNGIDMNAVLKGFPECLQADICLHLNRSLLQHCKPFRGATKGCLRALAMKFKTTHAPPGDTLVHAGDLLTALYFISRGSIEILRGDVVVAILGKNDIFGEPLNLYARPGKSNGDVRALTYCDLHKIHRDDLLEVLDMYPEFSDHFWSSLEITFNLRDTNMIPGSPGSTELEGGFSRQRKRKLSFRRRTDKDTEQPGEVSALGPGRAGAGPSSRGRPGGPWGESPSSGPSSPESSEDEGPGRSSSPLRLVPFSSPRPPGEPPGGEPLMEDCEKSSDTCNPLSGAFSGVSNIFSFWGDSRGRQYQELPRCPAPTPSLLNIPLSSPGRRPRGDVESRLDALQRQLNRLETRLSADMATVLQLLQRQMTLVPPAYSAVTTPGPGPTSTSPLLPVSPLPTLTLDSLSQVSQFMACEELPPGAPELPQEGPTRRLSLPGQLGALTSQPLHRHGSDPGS

Row | Structure (SMILES) | hERG current change (%, negative = inhibition) at 10uM
1 | O=C(NC(NC(=O)c1ccccc1)c1ccccc1)c1ccccc1 | -3.65%
2 | O=c1[nH]c(CSc2nc3ccccc3o2)nc2c1cnn2-c1ccccc1 | -9.37%
3 | Cc1ccc(CNC(=O)C2CCCN2C(=O)Nc2ccccc2)cc1 (stereo not drawn) | -8.61%
4 | CSc1ncccc1C(=O)Nc1ccc(S(=O)(=O)N2CCCC2)cc1 | -16.6%
5 | Cc1cccc(NC(=O)Cn2c(C)c(C#N)c3ccccc32)c1C | 5.11%
6 | CCOc1ccc2c(c1)nc(NCCCO)n2Cc1ccccc1 | -20.3%
7 | CC1=C(C(=O)OCc2ccccc2)C(c2ccc([N+](=O)[O-])cc2)NC(=O)N1CCCC(=O)O (stereo not drawn) | 13%
8 | Cc1c(Cl)ccc2c(C(=O)NC(C)c3ccncc3)cc(-c3ccncc3)nc12 (stereo not drawn) | -59.3%
9 | CCC(C)NC(=O)CN(c1ccc(OC)cc1)S(=O)(=O)c1ccccc1 (stereo not drawn) | 8.58%
10 | O=C1CCCCCCCN1Cc1ccccc1 | 10.6%
11 | Cc1nn(C)c(C)c1S(=O)(=O)N1CCCC(C(=O)NCC2COc3ccccc3O2)C1 (stereo not drawn) | -14.9%
12 | COc1cc2c(c(OC)c1OC)-c1c(cc3c(c1OC)OCO3)C[C@H](C)[C@@](C)(O)C2 | 28.4%
13 | C=CCn1cc(C(=O)NCC2CCCO2)c(=O)c2cc(S(=O)(=O)N3CCCCCC3)ccc21 (stereo not drawn) | -48.1%
14 | Cc1cc(C)nc(NS(=O)(=O)c2ccc(CC(C)C)cc2)c1 | -25.3%
15 | Cc1nn(S(=O)(=O)c2cccc([N+](=O)[O-])c2)c(C)c1Br | 10.7%
16 | CCOC(=O)C1(CCOc2ccccc2)CCN(Cc2ccncc2)CC1 | -52%
17 | Cc1ccc(-c2csc3ncnc(N4CCc5ccccc5C4)c23)cc1 | 10.8%
18 | Cc1csc(NC(=O)CSc2nnc(-c3ccncc3)o2)n1 | -1.96%
19 | CC(C)NCc1nnc(-c2ccccc2Cl)o1 | 21%
20 | CCCNC(=O)COc1coc(CN2CCN(c3ccccc3OC)CC2)cc1=O | -14.8%
21 | CCOc1ccc2c(C)c(C(=O)O)oc2c1OCC | 16.5%
22 | COc1ccc(NS(=O)(=O)c2cccc(C(=O)N(C)Cc3ccc(SC)cc3)c2)cc1 | -9.93%
23 | O=c1c(Cc2c(F)cccc2Cl)c(O)ccn1CCCN1CCOCC1 | -15.6%

Row | Structure (SMILES) | hERG current change (%, negative = inhibition) at 10uM
24 | O=C(O)C(NS(=O)(=O)c1ccccc1)C(O)c1ccccc1 (stereo not drawn) | 17%
25 | COCCCN=Cc1c(O)[nH]c(=S)[nH]c1=O | 0.728%
26 | OC[C@@H](O)[C@@H](O)[C@H](O)[C@H](O)CO | 9.43%
27 | C=CCc1cccc2cc(C(=O)OCC(=O)c3ccccc3)c(=O)oc12 | -12.6%
28 | Cc1ccc2ccccc2c1NC(=O)Cn1nnc(-c2cccnc2)n1 | -2.76%
29 | Cc1nc(C(=O)O)nn1-c1cc(Cl)ccc1Cl | 16.1%
30 | Cn1cc([N+](=O)[O-])c(C(=O)N/N=C/c2ccc3c(c2)OCO3)n1 | -2.68%
31 | Cc1ccc(C(=O)Nc2nc(C)c(C(=O)N(C)C)s2)o1 | 9.62%
32 | Cc1cc(Oc2ccc(N)cn2)ccc1Cl | 8.53%
33 | CCC(c1nnnn1Cc1ccccc1)N1CCN(c2ccccc2)CC1 (stereo not drawn) | -8.7%
34 | Cn1cc([N+](=O)[O-])c(C(=O)NCc2ccco2)n1 | 50.5%
35 | COC(=O)c1[nH]c2ccc(C)cc2c1NC(=O)Nc1ccc(OC)cc1 | -15%
36 | O=C(CCCC(=O)OCC(F)(F)C(F)F)Nc1nccs1 | 8.18%
37 | CC1CN(C(=O)COC(=O)c2cc(Cl)ccc2[N+](=O)[O-])CC(C)O1 (stereo not drawn) | 4.34%
38 | CC(/C=C/C=C/c1ccccc1)=N/NC(=O)CNc1ccc(C)cc1 | 10%
39 | CSc1ccccc1NC(=O)C1=COCCO1 | 13.2%
40 | Cc1cc(/C=C(/C#N)C(=O)O)c(C)n1CCC(C)C | 4.68%
41 | CCN(C(=O)CSc1nncn1-c1ccccc1)C1CCS(=O)(=O)C1 (stereo not drawn) | 24.6%
42 | CCN(CC)S(=O)(=O)N1CCC(C(=O)NC2CCCC2)CC1 | -6.03%
43 | CCCn1c(N)c(C(=O)CSc2n[nH]c(-c3ccc(C)cc3)n2)c(=O)[nH]c1=O | 22.2%
44 | COc1nccnc1NS(=O)(=O)c1ccc(NC(=S)NC(=O)/C=C/c2ccc(F)cc2)cc1 | -16.7%
45 | C[n+]1cccc(C(=O)NCC2CCCO2)c1.[I-] (stereo not drawn) | 18.1%
46 | CN(C)CCCNS(=O)(=O)c1ccc(NC2CCCCCC2)c([N+](=O)[O-])c1 | -21.1%

Row | Structure (SMILES) | hERG current change (%, negative = inhibition) at 10uM
47 | O=C(Nc1cccnc1)c1cc2nc(C3CC3)cc(C(F)(F)F)n2n1 | -14%
48 | COc1cccc(NC(=O)CCNC(=O)C2CCN(S(=O)(=O)c3ccc(F)cc3)CC2)c1 | 13%
49 | O=C(CSC1=NS(=O)(=O)c2cc(Cl)ccc2N1)Nc1cccc(F)c1 | -1.16%
50 | CCOC(=O)c1c(N)n[nH]c1-c1ccccc1 | 10.3%
51 | COc1cccc(-c2cccc(NC(=O)C3CCN(C4CCOCC4)CC3)c2)c1 | -42%
52 | Cc1ccc(CNC(=O)Nc2ccc(Cl)cc2)cc1 | 19.7%
53 | CC(C)CCNC(=O)/C=C/c1ccc(Br)cc1 | 0.187%
54 | Cc1cccc(Nc2nc(N)c([N+](=O)[O-])c(NCc3ccco3)n2)c1 | -6.06%
55 | CCOc1ccc(NC(=O)COn2nnc3ccc(S(=O)(=O)N4CCOCC4)cc32)cc1 | -21.7%
56 | CC(Sc1n[nH]c(N)n1)C(=O)Nc1cccc(S(=O)(=O)N2CCOCC2)c1 (stereo not drawn) | 16%
57 | CC(C)C(=O)O/N=C(\N)c1ccccn1 | 0.837%
58 | CCN(CC)S(=O)(=O)c1cccc(-c2nnc(SC(C)C(N)=O)n2CCc2ccccc2)c1 (stereo not drawn) | -34.1%
59 | COc1cc2c(cc1C1NC(=S)NC(C)=C1C(=O)N(C)C)CCCC2 (stereo not drawn) | -7.56%
60 | CC(C)[C@H](NC(=O)c1ccco1)C(=O)OCc1cc(=O)n2c(n1)sc1ccccc12 | 12.3%
61 | COc1ccc(N(C)C(=O)c2cn(CC(C)C)c(=O)c3cc(OC)c(OC)cc23)c(OC)c1 | 8%
62 | Cc1c(O)ccc(/C(Cc2ccc3ccccc3n2)=N\O)c1O | -1.53%
63 | O=C(O)COc1ccc(-c2nnn(CC(=O)O)n2)cc1 | 6.17%
64 | CC1CCCCN1S(=O)(=O)c1ccc([N+](=O)[O-])cc1 (stereo not drawn) | -4.19%
65 | Fc1cccc(CSc2nnc3ccc(-c4ccncc4)nn23)c1 | -60.4%
66 | O=C(Nc1ccc(S(=O)(=O)NC2CCCCC2)cc1)c1ccco1 | 2.08%
67 | O=C1CC(c2ccc(O)cc2)Oc2cc(O)cc(O)c21 (stereo not drawn) | -11.2%
68 | COc1cc2cc(CN(CCN3CCCC3)C(=O)Nc3ccccc3Cl)c(=O)[nH]c2cc1OC | -6.16%
69 | CCCCS(=O)(=O)C(=C1Nc2ccccc2N1)S(=O)(=O)CCCC | -6.74%

Row | Structure (SMILES) | hERG current change (%, negative = inhibition) at 10uM
70 | O=C(Nc1ccc(C(F)(F)F)cc1)C1CC(=O)N(c2ccc3c(c2)OCCO3)C1 (stereo not drawn) | 2.35%
71 | Cc1ccc(C)c(Nc2ccc3nonc3c2[N+](=O)[O-])c1 | 3.07%
72 | CC(C)N1CCN(Cc2coc3ccccc3c2=O)CC1CCO (stereo not drawn) | 7.7%
73 | C[C@H](CCC(=O)NCC(=O)O)[C@H]1CC[C@H]2C3[C@H](O)C[C@@H]4C[C@H](O)CC[C@]4(C)[C@H]3C[C@H](O)[C@]12C (stereo partly drawn) | 0.253%
74 | CC1(C)Oc2ccc(C(=O)NC3CCCC3)cc2N(CC(=O)N2CCOCC2)C1=O | -5.79%
75 | CNc1oc(/C=C/c2ccccc2)nc1C#N | 8.33%
76 | CCCCOc1ccc(C(=O)O)cc1 | 6.53%
77 | Cc1ccsc1C(=O)OCC(=O)Nc1c(Cl)cccc1C(F)(F)F | -2.72%
78 | CC(=O)N1Cc2ccccc2CC1C(=O)NCc1ccccc1F (stereo not drawn) | -7.43%
79 | O=C(Nc1ccc2c(c1)nc1n2CCOC1)c1ccco1 | 9.79%
80 | O=C(CCS(=O)(=O)c1cccs1)N1CCCC1 | 3.18%
81 | COC(=O)Cn1c(=O)c(=O)n(CC(=O)OC)c2ccccc21 | 22.7%
82 | CCSc1ccccc1C(=O)Nc1nncs1 | 11.6%
83 | Cc1ccccc1CN1CCN(S(=O)(=O)c2cccc3nsnc23)CC1 | -4.52%
84 | O=C(CCCCCNC(=O)N1CCn2c1nc1ccccc12)N[C@@H](Cc1ccccc1)C(=O)O | -11.4%
85 | CCS(=O)(=O)c1nc(S(=O)(=O)c2ccc(C)cc2)c(N2CC(C)CC(C)C2)s1 (stereo not drawn) | 2.19%
86 | CCCCSc1nc(C)c(CC(=O)OC)c(=O)[nH]1 | 14.1%
87 | COc1ccccc1NC(=S)N1CCN(C(c2ccccc2)c2ccccc2)CC1 | -1.35%
88 | CC(=O)Cc1cc(O)c2ccccc2c1OC(=O)c1ccccc1 | 27.6%
89 | CC(C)Cn1c(=S)[nH]c2cc(C(=O)NCc3ccccc3F)ccc2c1=O | -6.21%
90 | CS(=O)(=O)N1CCCC(C(=O)Nc2ccccc2F)C1 (stereo not drawn) | 20.4%
